The results in this text go back to publication PMC4336329 (PLoS ONE, 2015).

Each structure is given as a SMILES string. Among all 310,000 compounds or so, about 2,200 (0.71%) showed an effect of 50% or more. Effects have a minus sign here. The list shows a part of the results.

In this test the target is human ether-à-go-go-related gene (hERG) potassium channel (human, UniProt Q12809). The test is described as follows: primary screen, population patch clamp on CHO cells stably expressing hERG.
human ether-à-go-go-related gene (hERG) potassium channel, sequence (Q12809 whole entry, looked up): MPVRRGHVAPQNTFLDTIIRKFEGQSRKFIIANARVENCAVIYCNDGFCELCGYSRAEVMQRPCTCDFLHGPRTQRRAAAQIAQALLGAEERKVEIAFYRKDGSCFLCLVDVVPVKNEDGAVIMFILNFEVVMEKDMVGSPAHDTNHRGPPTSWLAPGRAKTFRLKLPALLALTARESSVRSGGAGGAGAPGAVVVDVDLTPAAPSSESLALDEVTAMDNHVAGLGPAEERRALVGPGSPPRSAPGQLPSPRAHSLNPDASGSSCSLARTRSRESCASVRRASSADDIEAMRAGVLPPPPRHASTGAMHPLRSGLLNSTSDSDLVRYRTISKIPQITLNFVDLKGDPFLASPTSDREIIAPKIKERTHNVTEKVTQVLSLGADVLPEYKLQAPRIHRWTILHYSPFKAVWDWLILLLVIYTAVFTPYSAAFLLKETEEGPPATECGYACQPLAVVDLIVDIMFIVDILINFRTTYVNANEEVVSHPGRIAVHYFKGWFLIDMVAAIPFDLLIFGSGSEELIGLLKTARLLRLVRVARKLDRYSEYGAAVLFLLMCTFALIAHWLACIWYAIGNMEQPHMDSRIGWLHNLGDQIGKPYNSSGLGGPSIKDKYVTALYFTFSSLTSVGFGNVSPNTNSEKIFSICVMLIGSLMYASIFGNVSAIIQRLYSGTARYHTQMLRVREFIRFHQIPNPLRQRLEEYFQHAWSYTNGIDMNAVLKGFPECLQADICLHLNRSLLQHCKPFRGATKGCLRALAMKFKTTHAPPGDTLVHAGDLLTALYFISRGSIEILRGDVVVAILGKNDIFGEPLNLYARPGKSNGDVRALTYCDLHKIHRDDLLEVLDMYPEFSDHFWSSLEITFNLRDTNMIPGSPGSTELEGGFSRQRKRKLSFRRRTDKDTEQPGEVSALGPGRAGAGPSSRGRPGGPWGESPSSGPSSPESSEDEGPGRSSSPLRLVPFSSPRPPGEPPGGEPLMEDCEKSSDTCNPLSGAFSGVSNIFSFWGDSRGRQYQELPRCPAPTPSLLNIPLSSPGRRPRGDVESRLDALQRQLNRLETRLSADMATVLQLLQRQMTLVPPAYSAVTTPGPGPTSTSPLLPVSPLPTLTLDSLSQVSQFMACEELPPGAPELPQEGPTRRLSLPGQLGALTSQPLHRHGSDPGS
Take `Cc1[nH]c2ccccc2c1C(=O)COC(=O)C1CC(O)CN1S(=O)(=O)c1ccc(Cl)cc1` (centres unmarked): the “hERG current change (%, negative = inhibition) at 1uM” value was found to be 11.2%.
Turning to `CCCc1nc(-c2ccccc2)c(-c2ccc(OC)c(OC)c2)c(=O)[nH]1`, the “hERG current change (%, negative = inhibition) at 1uM” value was 11.6%.
For `COc1ccc(C)cc1N(CC(=O)NC1CCCC1)C(=O)CCC(=O)Nc1nc(C)cs1` the value was 0.975%; for `O=S(=O)(Nc1ccc(Cl)cn1)c1ccccc1`, 27.4%.
Take `COc1ccc(OC)c(N2C(=O)NC(=O)/C(=C/c3ccc([N+](=O)[O-])s3)C2=O)c1`: the “hERG current change (%, negative = inhibition) at 1uM” value came out at 8.78%.
Under `CCN(CC)C(=O)c1sc(NC(=O)C(C)C)c(C#N)c1C` stands 6.18%.
Under `Nn1cnnc1SCC(=O)N1CCc2ccccc2C1` stands -10.1%; under `CCc1nnc(NC(=O)CCS(=O)(=O)Cc2ccccc2)s1`, 14.1%.
As for `CC(NC(=S)Nc1cccc(F)c1)C(c1cccs1)N1CCOCC1` (centres unmarked), the “hERG current change (%, negative = inhibition) at 1uM” value was 8.91%.
For `Cn1c(=O)cc(OCCCC(=O)NCc2ccc3c(c2)OCO3)c2ccccc21`, the “hERG current change (%, negative = inhibition) at 1uM” value worked out at 6.58%.
Take `COc1ccc(C(=O)Nc2nc3ccccc3s2)c(OC)c1`: the “hERG current change (%, negative = inhibition) at 1uM” value is reported as 17.7%.
Consider `COc1ccc(OC)c(NC(=O)c2ccccc2NC(=O)c2ccco2)c1`, for which the “hERG current change (%, negative = inhibition) at 1uM” value is 5.15%.
As to `COc1ccccc1N(CCC#N)C(=O)COC(=O)CCC(=O)c1ccc(F)cc1`, the “hERG current change (%, negative = inhibition) at 1uM” value was found to be 11.2%.
Take `C=CCN1C(=O)C(C(C)CC)NC1=S` (centres unmarked): the “hERG current change (%, negative = inhibition) at 1uM” value was -2.59%.
As for `O=C(O)c1ccccc1OCCOc1ccccc1`, the “hERG current change (%, negative = inhibition) at 1uM” value turned out to be 4.33%.
`Cc1ccc(C(c2nnnn2C(C)(C)C)N2CCN(C3CCCC3)CC2)cc1` (centres unmarked): the “hERG current change (%, negative = inhibition) at 1uM” value is 6.78%.
`Cc1nnc(SCC(=O)Nc2cccc(S(=O)(=O)N3CCCCC3)c2)s1`: the “hERG current change (%, negative = inhibition) at 1uM” value is on record as 5.35%.
For the compound `CC(CCc1ccccc1)NC(=O)C1CCC1` (centres unmarked), the “hERG current change (%, negative = inhibition) at 1uM” value was determined as 8%.
For `CCCn1c(-c2ccccc2)nc2c(=O)n(C)c(=O)[nH]c21`, the “hERG current change (%, negative = inhibition) at 1uM” value amounted to 8.27%.
With `CCCc1ccccc1OCCNS(=O)(=O)c1cc2c(cc1C)OCC(=O)N2`, the “hERG current change (%, negative = inhibition) at 1uM” value was 12.4%.
Take `Cc1cc(C)cc(N2CN=C3SCC(=O)N3C2)c1`: the “hERG current change (%, negative = inhibition) at 1uM” value worked out at 8.94%.
On to `CCN1CCN(C(=O)c2ccc(OC)c(S(=O)(=O)Nc3ccc(C)cc3)c2)CC1`, for which the “hERG current change (%, negative = inhibition) at 1uM” value is given as -2.18%.
As for `COc1ccc(OC)c(CCNC(=O)CCc2nnc3ccc(N4CCCC4)nn23)c1`, the “hERG current change (%, negative = inhibition) at 1uM” value amounted to 10.5%.
`COc1ccccc1C(=O)Nc1ccc2c(c1)CC1(C(=O)N(C)C(=O)N(C)C1=O)C1CCCN21` (centres unmarked): the “hERG current change (%, negative = inhibition) at 1uM” value is given as -8.17%.
Turning to `Cn1nc(N)c2c(-c3ccccc3)c(C#N)c(N)nc21`, the “hERG current change (%, negative = inhibition) at 1uM” value turned out to be 12.4%.
As to `O=C(NCc1cccs1)c1noc2c1CCCC2`, the “hERG current change (%, negative = inhibition) at 1uM” value was determined as 3.93%.
With `O=C(Oc1coc(CSc2ncccn2)cc1=O)c1ccccc1[N+](=O)[O-]`, the “hERG current change (%, negative = inhibition) at 1uM” value worked out at 8.37%.
Turning to `CC1=NN(C(N)=S)C(=O)C1N=Nc1cccc2ccccc12` (centres unmarked), the “hERG current change (%, negative = inhibition) at 1uM” value stood at 14.8%.
For `COc1cc2c(cc1OC)CN(Cc1cc(=O)oc3cc(C)c(C)cc13)CC2` the value was 5.04%; for `Cc1cc(C)cc(C(=O)NCc2ccc3c(c2)OCO3)c1`, 20.2%; for `Cc1ccccc1C1=NC(c2ccc(F)cc2F)ON1` (centres unmarked), 3.67%.
Under `CCCc1cc(=O)oc2cc(OCC(=O)NCc3ccccn3)ccc12` stands 6.97%; under `Cc1ccc(S(=O)(=O)N2CCOCC2)cc1C(=O)NCc1ccc2c(c1)OCO2`, -10.5%; under `COC(=O)c1cnn2c(C)c(Cc3cccc(F)c3)c(C)nc12`, -2.55%.
Regarding `COc1ccc(-n2c(C)nc3c(cnn3-c3ccc(Cl)cc3)c2=O)cc1`, the “hERG current change (%, negative = inhibition) at 1uM” value came out at 4.71%.
As to `O=C(Nc1ccccc1NS(=O)(=O)c1ccc(F)cc1)C1CCC1`, the “hERG current change (%, negative = inhibition) at 1uM” value worked out at 6.43%.
Regarding `O=C(CCCCCN1C(=O)[C@@H]2Cc3ccccc3CN2C1=O)Nc1ccccc1Cl`, the “hERG current change (%, negative = inhibition) at 1uM” value is 11.6%.
With `CS(=O)(=O)N1CCc2cc(C(=O)N3CCN(c4ccccc4)CC3)ccc21`, the “hERG current change (%, negative = inhibition) at 1uM” value is listed as 11.1%.
With `O=C(c1ccc(S(=O)(=O)N2CCOCC2)cc1)N1CCN(c2ccccc2)CC1`, the “hERG current change (%, negative = inhibition) at 1uM” value is -18.9%.
Regarding `CN=Cc1sc2ccccc2c1O`, the “hERG current change (%, negative = inhibition) at 1uM” value was 6.91%.
Regarding `CCOc1ccc(NC(=S)N(C)C)cc1`, the “hERG current change (%, negative = inhibition) at 1uM” value was determined as 10.7%.
Under `Cc1nn(CC(=O)NCCc2cccs2)c(=O)c2nn(-c3ccccc3)c(C)c12` stands 5.68%.
As to `COc1ccccc1N1CCN(C(=O)C2CCN(S(=O)(=O)c3ccc(Cl)cc3)CC2)CC1`, the “hERG current change (%, negative = inhibition) at 1uM” value turned out to be 3.28%.
For `Cc1nc2ccc(C(=O)Nc3cccc([N+](=O)[O-])c3)cc2s1`, the “hERG current change (%, negative = inhibition) at 1uM” value is 1.56%.
